Consider 56 variants from the RNAGym collection of RNA variant scans (doi:10.7554/elife.90254).

The source gives no read counts; variants with many changes may rest on few reads.

B1: LINE1-mini (parent)
chain: GGCAGAGCUCAACACAGCGUGGCAAAGUGGCUGUGGCUAGACUGCC

Variants of B1 are the subject of the data set. As to the kind of experiment: self-cleavage, relative activity (ratio to wild type); higher = more cleavage; in vitro, sequencing; the parent is a self-cleaving ribozyme.
GGCAGAGCUCAAUACAGCGUGGCAAAGUGGUUGUGGCGAGACUGCC [C13U C31U U38G]: the self-cleavage was determined as 0.

As for GGCGGAGCUCAACACAGCGUGGCAAAGAGGCUUUGUCUAGACUGCC [A4G U28A G33U G36U], the self-cleavage was 0.08.

Regarding GGCAGAGCUCGACACUGCGUGGCAAAGUGGCUGUGGAUAGACUGCC [A11G A16U C37A], the self-cleavage is 0.03.

Regarding GGCAGAGCUCAACACGGCCUGGCAAAGUGGCUGUGGCCAGACUGCC [A16G G19C U38C], the self-cleavage turned out to be 0.03.

On to GCCAGAGCGCAACACAGCGUGGCAAAGUGGCUGUGGCUAAACUGAC [G2C U9G G40A C45A], for which the self-cleavage was 0.05.

For UGCAGUGCUCAACACAGCGUGGCAAAGUGGCUGUUGCUAGACUGCC [G1U A6U G35U], the self-cleavage is 0.08.

For the variant AGCAGAGCUCAACACAGCGUGGCAAAGUGGGUGUGUCUAGACUGCC [G1A C31G G36U], the self-cleavage came out at 0.15.

In the case of GGCAGAGAUCAACACAGCUUGGCAAAUUGGCUGCGGCUAGACUGCC [C8A G19U G27U U34C], the self-cleavage was 0.02.

As to GGCAGAGCUAAGCACAGAGUGGCAAAGUGGCUGUGGCUAGACUGCC [C10A A12G C18A], the self-cleavage was found to be 0.03.

For the variant GGCAGAGCUCUUCACAUCGUGGCAAAGUGGCUAUGGCUAGAUUACC [A11U A12U G17U G33A C42U G44A], the self-cleavage was 0.

For GGCAGCGCUCAACACAGUGUGGCAAAGUGCCUGUGGCUAUACUGCC [A6C C18U G30C G40U], the self-cleavage amounted to 0.18.

As for GGCAGAGAUCAACUCAGCGCCGCAAAUUGGCUGUGGCUCCACUACC [C8A A14U U20C G21C G27U A39C G40C G44A], the self-cleavage stood at 0.01.

For the variant GGCAGAGAUCAACACAGAGUGGCAAAGUGGCUGUGGCUCGACUGCC [C8A C18A A39C], the self-cleavage amounted to 0.24.

On to GGCAGAGCUCAACAUAGCGUGGCAAAGUGGCUGUGUCUAGACAGCC [C15U G36U U43A], for which the self-cleavage is 0.19.

On to GGCAGAGCUGAACACAGCGUGGGAAAGUGGAUGUGGCUAGACUGCC [C10G C23G C31A], for which the self-cleavage was 0.02.

GGUAGAGAUCAACACAGGGUGCCAAAAUGGCGGUGGCUAGACUGCC [C3U C8A C18G G22C G27A U32G]: the self-cleavage worked out at 0.06.

In the case of GGCAGAGCUCAACACAGCGUGGCAAGGUGCCUAUGGAUAGACUGCC [A26G G30C G33A C37A], the self-cleavage stood at 0.07.

Regarding GGCAGACUUCAAAACAGCGUGGCAAAGUGGCUGUGGCUAGACUGCC [G7C C8U C13A], the self-cleavage was 0.06.

For CCAAGAGCUCAACACAACGUGGCAAAGUGGCUGGGGCUAGACUGCC [G1C G2C C3A G17A U34G], the self-cleavage came to 0.01.

For the variant GGCAGACCUCAACACAACGUGGUAAAGUGGCUGAGGCUGGACUGCC [G7C G17A C23U U34A A39G], the self-cleavage was 0.02.

For the variant GGCAGAGCUCAACACAGCAUGGUAAAGUGGCUGUGGCUAUACUGCC [G19A C23U G40U], the self-cleavage amounted to 0.19.

As to GCCAGAGCUCGACAAAGCGUGGUAAAGUGGCUGUGGCUAGAAUGCC [G2C A11G C15A C23U C42A], the self-cleavage was found to be 0.

For the variant GACAGAGCACAACACAUCGUGGCAAAGUGGCUGUGUCUAGACUGAC [G2A U9A G17U G36U C45A], the self-cleavage worked out at 0.05.

Regarding CGCAGAGCUCAACACAGCGUGGCAAGGUGGCUGUGGGUAGACUGCA [G1C A26G C37G C46A], the self-cleavage came to 0.

Regarding GGCAUAUCUCAACACAGCGUGGCAAAGUGUAUGUGGCUAGACUGCC [G5U G7U G30U C31A], the self-cleavage was 0.4.

Take GGCAGAGCUCAACACAGCGUGGGAAAGUGGCCGUAGCUAGCCUGCU [C23G U32C G35A A41C C46U]: the self-cleavage is 0.04.

Regarding GACAAAGCCCAUCACAGCGUGGCAAAGUGGCUGUGGCUAGACUGCC [G2A G5A U9C A12U], the self-cleavage came to 0.07.

In the case of GGCACAGCCCAACAGAGCGCGGCAAAGAGGCUGUGGCUAGACUGCC [G5C U9C C15G U20C U28A], the self-cleavage was 0.02.

Turning to GGCAGAGCUCAACACAGCGUGGCAAAGGGGCCGUGGCUAGACUGCA [U28G U32C C46A], the self-cleavage was 0.09.

As for GUCAGAGAUCAACACAGCGUGGCACAGUGGCUGUGGCUAGACUGCC [G2U C8A A25C], the self-cleavage came to 0.01.

On to GGCAGAGCUCAACACAGCGUGACAAAGUGGCUGUGGCUAAACUGGC [G22A G40A C45G], for which the self-cleavage is 0.03.

As to GGCAGAGCUCUACACAGCGUGGCGAAGUGGCUGUUGCUAGACUGCC [A11U A24G G35U], the self-cleavage stood at 0.02.

For the variant GGCAGAGCUCAACAAAGCGUGGGAAAGUGGCUGCGGCUAGACUGCC [C15A C23G U34C], the self-cleavage is 0.08.

Take GGCAGAGCUCAACACGGCGUCCCAAAGUGGCUGUGGCUAGACUGCC [A16G G21C G22C]: the self-cleavage came to 0.53.

Consider GGCAGAGCUCAACACAGCGUGGCAAAGUGCCUGAGGCUAGACUGCU [G30C U34A C46U], for which the self-cleavage was 0.17.

For GGCAGACCUCAACACAGCUUGGCAAAGUGGCAGUGGCUAGACUGCC [G7C G19U U32A], the self-cleavage was 0.12.

On to GGCGGAGCGCAACACAGCGUGGCAAAGUGGGAGUGGCUAGACUGCC [A4G U9G C31G U32A], for which the self-cleavage was determined as 0.04.

Turning to GGCAGAGCUCAACACAGCGUGGCACAGUCGCUCUGGCUGGACUGCC [A25C G29C G33C A39G], the self-cleavage came to 0.

With GGCAGAGCUCAAUACAGCGAGGCAAAGUGACUGUGGCGAGACUGCC [C13U U20A G30A U38G], the self-cleavage stood at 0.

For the variant GGCAGAGCUCAACACCGCGUGGCAAAAUGGCUCUGGCUAGACUGCC [A16C G27A G33C], the self-cleavage was 0.

On to GGUAGAGCUCAACACAGCGUGGCAAAGUGACUGUGGCUAGUCUGCU [C3U G30A A41U C46U], for which the self-cleavage is 0.16.

With GGCAGAGCUCAAGACAGCGUGGCCAAGAGGCUGUGGCUAGACUGGC [C13G A24C U28A C45G], the self-cleavage was 0.02.

Regarding GGCAGAGCUCAACACAUCUUUGCAAAGUGGCUUUGGCUAGACUGCA [G17U G19U G21U G33U C46A], the self-cleavage is 0.04.

With GGCAGAACUCAACACAGCGUGGGAAGGUGGCUGUGGUUAUACUCUC [G7A C23G A26G C37U G40U G44C C45U], the self-cleavage is 0.06.

Consider GGGAGAGCUUAACACUGCGUGGCAAAGUGGGUGUGGCUAGACUGCC [C3G C10U A16U C31G], for which the self-cleavage worked out at 0.02.

As for GGCAGAGCUCAUCAAAGCUUGGCCAAGUGGCUGUGACUAGACUGCC [A12U C15A G19U A24C G36A], the self-cleavage worked out at 0.18.

Consider GGUAGACCUCAACACAGCGUGGCAAAGUGGCUGUGGCUGGACUGCC [C3U G7C A39G], for which the self-cleavage was 0.28.

As to GGCAGAGCUCCACACAGCGUGGCAACGUGGCUGUGGCUAAACUGCC [A11C A26C G40A], the self-cleavage was found to be 0.

Consider GGCAGAGCUCCACUCAGCAUGGCCAAGUGGCUGUGGCUAGACUGCC [A11C A14U G19A A24C], for which the self-cleavage stood at 0.

For the variant GGCAGAGCUCAACGCAACGUGGCAAAGGGGCUGUGGCGAAACUGCC [A14G G17A U28G U38G G40A], the self-cleavage turned out to be 0.01.

In the case of GGCAGAGCUCAACAAAGCGUGGUAAAUUGGCUGUGGCUAGACUGCC [C15A C23U G27U], the self-cleavage was 0.15.

For the variant GGCAGAGCUCAACACAGCGUGGUAAAGUGGCUGUGGUUAGAGUGCG [C23U C37U C42G C46G], the self-cleavage stood at 0.

For CGCAGAGAUCAACACAGCGUGGCAAAGUGGCUGUGGCUAAACCGCC [G1C C8A G40A U43C], the self-cleavage worked out at 0.09.

For GGCAAAGCUCAACUCAGAGUUGCAAAGUGGCAGUGGCUAGACUGCA [G5A A14U C18A G21U U32A C46A], the self-cleavage is 0.02.

Regarding GGCAGAUCUCAACACAGAAUGGCCAAGUGGCUGUGGCUUGACUGCC [G7U C18A G19A A24C A39U], the self-cleavage amounted to 0.02.

For GGCAGAGCUCAACACAGCGUGGCACAGUGUCUGUGGCUAGACUGCU [A25C G30U C46U], the self-cleavage was 0.27.
